Laboratory results: patent US20230250147A1 (Sanofi, published 2023)

T1: Mouse GLP-1R (mouse, UniProt O35659 22-463)
T1 sequence (looked up): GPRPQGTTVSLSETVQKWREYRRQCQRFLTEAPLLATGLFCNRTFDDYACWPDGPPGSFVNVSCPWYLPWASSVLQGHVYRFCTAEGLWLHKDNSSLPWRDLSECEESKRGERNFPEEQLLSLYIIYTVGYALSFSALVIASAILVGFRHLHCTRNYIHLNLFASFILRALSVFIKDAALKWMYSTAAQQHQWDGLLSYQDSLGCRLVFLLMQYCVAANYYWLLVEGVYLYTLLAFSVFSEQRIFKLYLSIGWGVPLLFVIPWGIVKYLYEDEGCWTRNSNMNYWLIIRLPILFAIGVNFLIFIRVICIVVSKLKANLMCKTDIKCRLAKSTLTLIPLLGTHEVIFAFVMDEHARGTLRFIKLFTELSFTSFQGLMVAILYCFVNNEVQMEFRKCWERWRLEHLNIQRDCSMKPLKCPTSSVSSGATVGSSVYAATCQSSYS

B1: GLP-1RA/FGF21 Fc fusion protein SEQ ID NO: 27 (Fc fusion)
chain: HGEGTFTSDLSILLDEEAVRLFIEWLLATGPVSGAPPPSGGGGGGGSGGGGSGGGGSA[… human IgG4 Fc with changes …]GGGSGSAHPIPDSSPLLQFGGQVRQRYLYTDDACQTEAHLEIREDGTVGGAADQSPESLLQLKALKPGVIQILGVKTSRFLCQRPDGALYGSLHFDPEACSFRELLLEDGYNVYQSEAHGLPLHLPGCKSPHRDPAPRGPARFLPLPGLPPAPPEPPGILAPQPPDVGSSDPLSMVYPSQGRSPSYAS
B2: GLP-1RA/FGF21 Fc fusion protein SEQ ID NO: 209 (Fc fusion)
chain: GHGEGTFTSDKSKQLEEEAVRLFIEWLKAGGPKKIRYSGGGGGGGSGGGGSGGGGSA[… human IgG4 Fc with changes …]GGGSGSAHPIPDSSPLLQFGGQVRQRYLYTDDACQTEAHLEIREDGTVGGAADQSPESLLQLKALKPGVIQILGVKTSRFLCQRPDGALYGSLHFDPEACSFRELLLEDGYNVYQSEAHGLPLHLCGNKSPHRDPAPRGPARFLPLPGLPPAPPEPPGILAPQPPDVGSSDPLSMVGSQGRSPSYAS
B3: GLP-1RA/FGF21 Fc fusion protein SEQ ID NO: 3 (Fc fusion)
chain: GHGEGTFTSDKSKQLEEEAVRLFIEWLKAGGPKKIRYSGGGGGGGSGGGGSGGGGSA[… human IgG4 Fc with changes …]GGGSGSAHPIPDSSPLLQFGGQVRQRYLYTDDACQTEAHLEIREDGTVGGAADQSPESLLQLKALKPGVIQILGVKTSRFLCQRPDGALYGSLHFDPEACSFRELLLEDGYNVYQSEAHGLPLHLPGCKSPHRDPAPRGPARFLPLPGLPPAPPEPPGILAPQPPDVGSSDPLSMVGSQGRSPSYAS
B4: GLP-1RA/FGF21 Fc fusion protein SEQ ID NO: 211 (Fc fusion)
chain: GHGEGTFTSDLSKQLEEEAVRLFIEWLKAGGPKKIRYSGGGGGGGSGGGGSGGGGSA[… human IgG4 Fc with changes …]GGGSGSAHPIPDSSPLLQFGGQVRQRYLYTDDACQTEAHLEIREDGTVGGAADQSPESLLQLKALKPGVIQILGVKTSRFLCQRPDGALYGSLHFDPEACSFRELLLEDGYNVYQSEAHGLPLHLPGCKSPHRDPAPRGPARFLPLPGLPPAPPEPPGILAPQPPDVGSSDPLSMVGSQGRSPSYAS
B5: GLP-1RA/FGF21 Fc fusion protein SEQ ID NO: 212 (Fc fusion)
chain: GHGEGTFTSDLSKQLEEEAVQLFIEWLKAGGPKKIRYSGGGGGGGSGGGGSGGGGSA[… human IgG4 Fc with changes …]GGGSGSAHPIPDSSPLLQFGGQVRQRYLYTDDACQTEAHLEIREDGTVGGAADQSPESLLQLKALKPGVIQILGVKTSRFLCQRPDGALYGSLHFDPEACSFRELLLEDGYNVYQSEAHGLPLHLPGCKSPHRDPAPRGPARFLPLPGLPPAPPEPPGILAPQPPDVGSSDPLSMVGSQGRSPSYAS
B6: GLP-1RA/FGF21 Fc fusion protein SEQ ID NO: 229 (Fc fusion)
chain: HGEGTFTSDKSKQLEKRLVRLFYEWLIAGGHSSGKPPPKGGGGGGGSGGGGSGGGGSA[… human IgG1 Fc with changes …]GGGSGSAHPIPDSSPLLQFGGQVRQRYLYTDDACQTEAHLEIREDGTVGGAADQSPESLLQLKALKPGVIQILGVKTSRFLCQRPDGALYGSLHFDPEACSFRELLLEDGYNVYQSEAHGLPLHLPGCKSPHRDPAPRGPARFLPLPGLPPAPPEPPGILAPQPPDVGSSDPLSMVYPSQGRSPSYAS
B7: GLP-1RA/FGF21 Fc fusion protein SEQ ID NO: 5 (Fc fusion)
chain: GHGEGTFTSDKSKQLEEEAVRLFIEWLKAGGPKKIRYSGGGGGGGSGGGGSGGGGSA[… human IgG4 Fc with changes …]GGGSGSAHPIPDSSPLLQFGGQVRQRYLYTDDACQTEAHLEIREDGTVGGAADQSPESLLQLKALKPGVIQILGVKTSRFLCQRPDGALYGSLHFDPEACSFRELLLEDGYNVYQSEAHGLPLHLPGCKSPHRDPAPRGPARFLPLPGLPPAPPEPPGILAPQPPDVGSSDPLSMVYPSQGRSPSYAS
B8: GLP-1RA/FGF21 Fc fusion protein SEQ ID NO: 208 (Fc fusion)
chain: GHGEGTFTSDKSKQLEEEAVRLFIEWLKAGGPKKIRYSGGGGGGGSGGGGSGGGGSA[… human IgG4 Fc with changes …]GGGSGSAHPIPDSSPLLQFGGQVRQRYLYTDDACQTEAHLEIREDGTVGGAADQSPESLLQLKALKPGVIQILGVKTSRFLCQRPDGALYGSLHFDPEACSFRELLLEDGYNVYQSEAHGLPLHLCGNKSPHRDPAPRGPARFLPLPGLPPAPPEPPGILAPQPPDVGSSDPLSMVYPSQGRSPSYAS
B9: GLP-1RA/FGF21 Fc fusion protein SEQ ID NO: 83 (Fc fusion)
chain: HGEGTFTSDKSKQLEKRLVRLFIEWLIAVGHSGKPPPKGGGGGGGSGGGGSGGGGSA[… human IgG4 Fc with changes …]GGGSGSAHPIPDSSPLLQFGGQVRQRYLYTDDACQTEAHLEIREDGTVGGAADQSPESLLQLKALKPGVIQILGVKTSRFLCQRPDGALYGSLHFDPEACSFRELLLEDGYNVYQSEAHGLPLHLPGCKSPHRDPAPRGPARFLPLPGLPPAPPEPPGILAPQPPDVGSSDPLSMVGSQGRSPSYAS
B10: GLP-1RA/FGF21 Fc fusion protein SEQ ID NO: 57 (Fc fusion)
chain: YGEGTFTSDKSQLLEKRLAHLFIEWLIAGGHSSGKPPPKGGGGGGGSGGGGSGGGGSA[… human IgG4 Fc with changes …]GGGSGSAHPIPDSSPLLQFGGQVRQRYLYTDDACQTEAHLEIREDGTVGGAADQSPESLLQLKALKPGVIQILGVKTSRFLCQRPDGALYGSLHFDPEACSFRELLLEDGYNVYQSEAHGLPLHLPGCKSPHRDPAPRGPARFLPLPGLPPAPPEPPGILAPQPPDVGSSDPLSMVGSQGRSPSYAS

Legend:
Test in all cases: cell-based or functional assay
[1] = target: human glucagon-like peptide-1 (GLP-1) receptor (human, UniProt P43220 24-463)
[2] = target: Monkey GLP-1R (monkey)
[3] = target: T1, Mouse GLP-1R
[4] = target: T2, human FGFR1c together with human beta-Klotho (KLB) (human, UniProt P11362 22-822; Q86Z14 1-1044)
[5] = target: T2, human FGFR1c together with human …; remark: listed apart in the source

T2 sequence (P11362 22-822, chain 1 of 2): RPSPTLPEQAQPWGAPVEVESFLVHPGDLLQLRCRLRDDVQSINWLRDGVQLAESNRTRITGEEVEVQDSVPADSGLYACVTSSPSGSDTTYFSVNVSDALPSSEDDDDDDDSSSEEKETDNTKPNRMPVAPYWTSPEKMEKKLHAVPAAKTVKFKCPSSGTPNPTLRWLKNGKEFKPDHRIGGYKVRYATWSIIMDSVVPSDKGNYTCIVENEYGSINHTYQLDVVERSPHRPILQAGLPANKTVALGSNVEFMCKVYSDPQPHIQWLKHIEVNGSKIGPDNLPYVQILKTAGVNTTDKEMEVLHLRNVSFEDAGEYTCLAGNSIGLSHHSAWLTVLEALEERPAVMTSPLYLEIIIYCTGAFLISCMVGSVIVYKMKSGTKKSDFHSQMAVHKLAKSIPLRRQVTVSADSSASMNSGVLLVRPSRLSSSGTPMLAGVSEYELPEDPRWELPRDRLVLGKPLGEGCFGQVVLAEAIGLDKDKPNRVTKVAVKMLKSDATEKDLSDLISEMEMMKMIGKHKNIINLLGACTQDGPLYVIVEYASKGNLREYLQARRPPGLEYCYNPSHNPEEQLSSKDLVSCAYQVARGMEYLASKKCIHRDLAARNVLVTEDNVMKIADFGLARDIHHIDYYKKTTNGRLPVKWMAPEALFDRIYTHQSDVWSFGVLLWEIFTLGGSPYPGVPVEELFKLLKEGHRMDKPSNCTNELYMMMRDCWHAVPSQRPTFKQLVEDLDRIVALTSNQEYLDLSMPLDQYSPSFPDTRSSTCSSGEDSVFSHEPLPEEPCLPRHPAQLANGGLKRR
T2 sequence (Q86Z14 whole entry, chain 2 of 2, further chain): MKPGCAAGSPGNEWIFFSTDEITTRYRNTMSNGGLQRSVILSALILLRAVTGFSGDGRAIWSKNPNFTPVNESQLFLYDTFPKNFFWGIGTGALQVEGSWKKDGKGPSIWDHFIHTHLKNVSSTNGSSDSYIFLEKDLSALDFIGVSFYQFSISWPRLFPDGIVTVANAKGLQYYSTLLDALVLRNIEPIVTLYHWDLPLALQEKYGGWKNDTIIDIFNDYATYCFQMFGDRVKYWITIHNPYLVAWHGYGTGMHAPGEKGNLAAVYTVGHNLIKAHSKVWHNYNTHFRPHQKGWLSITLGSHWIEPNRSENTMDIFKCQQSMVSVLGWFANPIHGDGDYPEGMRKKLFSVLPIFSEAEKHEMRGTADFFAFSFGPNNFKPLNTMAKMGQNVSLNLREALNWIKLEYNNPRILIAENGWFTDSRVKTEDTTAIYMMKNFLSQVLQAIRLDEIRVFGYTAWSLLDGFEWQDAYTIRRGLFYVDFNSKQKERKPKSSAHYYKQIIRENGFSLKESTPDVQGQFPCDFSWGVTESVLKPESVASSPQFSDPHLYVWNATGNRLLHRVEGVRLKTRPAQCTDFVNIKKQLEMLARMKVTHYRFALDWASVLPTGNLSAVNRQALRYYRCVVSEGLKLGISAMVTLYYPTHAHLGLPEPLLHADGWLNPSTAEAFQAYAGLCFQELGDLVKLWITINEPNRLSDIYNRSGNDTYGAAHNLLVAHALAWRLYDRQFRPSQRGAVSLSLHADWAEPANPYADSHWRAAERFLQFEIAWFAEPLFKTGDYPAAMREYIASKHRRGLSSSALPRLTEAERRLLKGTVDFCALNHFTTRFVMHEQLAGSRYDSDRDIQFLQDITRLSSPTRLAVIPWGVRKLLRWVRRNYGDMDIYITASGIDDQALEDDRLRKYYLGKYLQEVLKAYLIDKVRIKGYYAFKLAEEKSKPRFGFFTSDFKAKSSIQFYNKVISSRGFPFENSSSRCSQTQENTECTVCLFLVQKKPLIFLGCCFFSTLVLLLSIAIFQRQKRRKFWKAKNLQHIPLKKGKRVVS

Row | Binder | HTRF cAMP EC50 [1] | HTRF cAMP EC50 [2] | HTRF cAMP EC50 [3] | pFGFR ICW EC50 [4] | pERK ICW EC50 [5]
1 | B1 | 0.0375 nM | 0.0751 nM | 0.091 nM |  | 
2 | B2 | 0.164 nM | 0.232 nM | 0.118 nM | 66.3 nmol/L | 27.9 nmol/L
3 | B3 | 0.212 nM | 0.279 nM | 0.0972 nM | 22.7 nmol/L | 6.07 nmol/L
4 | B4 | 0.0588 nM | 0.0685 nM | 0.152 nM |  | 
5 | B5 | 0.113 nM | 0.153 nM | 0.287 nM |  | 
6 | B6 | 0.0629 nM | 0.0821 nM | 0.47 nM |  | 
7 | B7 | 0.125 nM | 0.196 nM | 0.0965 nM | 20.4 nmol/L | 6.84 nmol/L
8 | B8 | 0.17 nM | 0.255 nM | 0.128 nM |  | 
9 | B9 | 0.0293 nM | 0.0281 nM | 0.056 nM | 16.6 nmol/L | 2.44 nmol/L
10 | B10 | 0.0211 nM | 0.0157 nM | 0.0193 nM | 25.8 nmol/L | 6.86 nmol/L
